From PubChem BioAssay AID485367 (National Center for Advancing Translational Sciences (NCATS), 2010)
About 560 (0.17%) of roughly 330,000 compounds were called active. The inconclusive results got no clear call from the source; some entries with a clear call stand among them for comparison. Calls come from the whole dose curve; as a rule, active = well fitted inhibition curve with a large enough effect; inconclusive = small, poorly fitted or top-dose-only effect, or effect the other way; inactive = flat fitted curve, though single readings scatter. No potency is given beside an inconclusive call; the fits are too rough.

What follows are compounds tested against ATP-dependent 6-phosphofructokinase (Trypanosoma brucei brucei) (UniProt O15648) (assay: qHTS Assay to Find Inhibitors of T. brucei phosphofructokinase). Details: T. brucei PFK, ADP-Glo luminescence; series mostly up to 57.5 µM.
How it was run: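 Activity is normalized to no-enzyme wells (full inhibition) and 1.25 nM enzyme wells (no inhibition). Reaction: 0.5 mM F6P, 0.1 mM ATP, 45 min RT, ADP-Glo luminescence; concentration-response curves fitted and classed by quality.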
Note: nearly all actives have a fitted effect of over 60% in size.
Potency is the fitted concentration of half-maximal effect; tags give direction and shape of the fitted curve.

UniProt O15648, sequence (O15648 whole entry, looked up): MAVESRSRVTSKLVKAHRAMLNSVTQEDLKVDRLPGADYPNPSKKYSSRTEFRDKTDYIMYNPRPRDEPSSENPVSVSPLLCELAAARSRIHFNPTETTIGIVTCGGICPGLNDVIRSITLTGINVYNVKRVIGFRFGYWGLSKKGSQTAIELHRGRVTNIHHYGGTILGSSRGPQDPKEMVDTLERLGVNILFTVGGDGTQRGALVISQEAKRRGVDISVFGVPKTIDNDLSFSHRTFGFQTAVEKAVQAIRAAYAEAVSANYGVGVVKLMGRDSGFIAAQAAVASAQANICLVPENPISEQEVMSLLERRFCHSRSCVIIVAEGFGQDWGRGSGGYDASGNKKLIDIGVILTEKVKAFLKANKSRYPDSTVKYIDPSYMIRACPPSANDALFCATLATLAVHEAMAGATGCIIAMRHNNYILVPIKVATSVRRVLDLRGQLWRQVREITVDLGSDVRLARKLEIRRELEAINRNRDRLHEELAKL

Row | Compound | Potency
1 | Cc1ccc(NC(=O)CSc2nc(NS(=O)(=O)c3ccccc3)cc(=O)[nH]2)cc1 | inconclusive [falling, single point]
2 | CC1CCCCC1NC(=O)COC(=O)c1ccc2ncsc2c1 (stereo unspecified) | inconclusive [falling, single point]
3 | Cc1ccc(N2C(=O)CC(Sc3ccccc3C(=O)O)C2=O)cc1C (stereo unspecified) | inconclusive [activator, single point]
4 | c1cc(SSc2ccncc2)ccn1 | active: 23.9 µM
5 | Cc1ccc(-c2csc3n[nH]c(=S)n23)cc1 | inconclusive [falling, full curve]
6 | C/C(=N\Nc1ccc([N+](=O)[O-])cc1[N+](=O)[O-])C(C)(C)C(C(=O)O)C(=O)O | inconclusive [activator, single point]
7 | Cc1cccc(N2C(=O)CC(Cn3nc(C)cc3C)C2=O)c1 (stereo unspecified) | inconclusive [falling, single point]
8 | C=C(C)COc1ccc(-c2nc(N)ncc2-c2ccc(Br)cc2)c(O)c1 | inconclusive [falling, single point]
9 | Cc1cc(NC(=O)Nc2cccc(Cl)c2)n(C(C)(C)C)n1 | inconclusive [falling, partial curve]
10 | O=C(COc1ccc(Cl)cc1)Nc1nc(-c2ccncc2)cs1 | inconclusive [falling, single point]
11 | COCCNc1nc2c(c(=O)n(C)c(=O)n2C)n1Cc1cccc(C)c1 | inactive
12 | CCOc1cccc(C=Nc2cc(C)cc(C)c2O)c1O | inactive
13 | CCCC(=O)OCCNc1cc(Sc2nc3ccccc3[nH]2)c2nonc2c1[N+](=O)[O-] | active: 21.3 µM
14 | S=c1[nH]nc(-c2ccco2)n1/N=C/c1cccc(Cl)c1 | inconclusive [activator, single point]
15 | CCCCNC(=O)[C@]1(C)CCC[C@@]2(C)C3CC[C@@]4(C)C[C@]3(CCC21)CC4=O (stereo partly specified) | inactive
16 | C=CCc1cccc(/C=N/NC(=O)c2ccc3nc[nH]c3c2)c1O | inactive
17 | C#CCOCCOCCOCCNc1nc(OC)nc(N2CCN(C(=O)[C@H](CCC(=O)O)n3cc(C(N)CO)nn3)CC2)n1 (stereo partly specified) | inconclusive [falling, single point]
18 | Cc1ccccc1N1C(S)=C(C#N)C(=O)NC12CCCCC2 | inconclusive [falling, single point]
19 | Cc1ccc(-n2c(CCc3nc4ccccc4[nH]3)n[nH]c2=S)cc1 | inactive
20 | O=C(NNC(=S)NCc1ccc(Cl)cc1)c1ccc(Br)o1 | inconclusive [falling, partial curve]
21 | CCc1nnc(NS(=O)(=O)c2ccc(NC(=S)NC(=O)c3cccs3)cc2)s1 | inconclusive [activator, single point]
22 | CCc1ccccc1N1CSC2=C(C#N)C(c3ccccc3F)CC(=O)N2C1 (stereo unspecified) | inactive
23 | O=C1N=C(N2C=CC(=C3C=CNC=C3)C=C2)/C(=C/N=NC(=O)c2ccccc2O)S1 | inconclusive [falling, single point]
24 | CC(C(=O)NC1C(=O)N2C(C(=O)O)=C(CSc3nnnn3C)CSC12)n1cc(Br)cn1 (stereo unspecified) | inconclusive [falling, single point]

Row | Compound | Potency
25 | O=C(NNc1ccc([N+](=O)[O-])cc1)Nc1ccccc1 | inconclusive [falling, partial curve]
26 | O=C(O)c1cccnc1 | inconclusive [activator, single point]
27 | COC(=O)c1cccc(NC(=O)CSc2nc(C)cc(=O)[nH]2)c1 | inconclusive [activator, full curve, poor fit]
28 | Nc1ccccc1SC/C=C/CSc1ccccc1N | inactive
29 | N=C1c2ccccc2CN1c1ccc(N2CCOCC2)c(S(=O)(=O)Nc2ccc(Cl)cc2)c1 | inconclusive [falling, full curve]
30 | O=C(Cc1ccc(Cl)c(Cl)c1)Nc1ccc2[nH]c(=O)[nH]c2c1 | inconclusive [falling, full curve]
31 | O=c1c2ccccc2c(/C=N/NS(=O)(=O)c2ccccc2)c(O)n1-c1ccccn1 | inconclusive [activator, single point]
32 | CC1CCCCN1C(=O)COC(=O)c1cc([N+](=O)[O-])ccc1N1CCOCC1 (stereo unspecified) | inconclusive [falling, single point]
33 | FC(F)(F)c1ccc(-c2nnc(-c3cccnc3)o2)cc1 | inactive
34 | CC(C)(C)C(=O)Cn1ncc(Cl)c(Cl)c1=O | inactive
35 | O=C(COC(=O)c1ccccc1NCCO)Nc1cccc(S(=O)(=O)NC2=NCCCCC2)c1 | inconclusive [falling, single point]
36 | O=C(Nc1ccc(Cl)cc1)Nc1csc([N+](=O)[O-])c1 | inconclusive [falling, single point]
37 | NS(=O)(=O)c1ccc(NC(=O)Nc2ccc(Cl)cc2)cc1 | active: 12 µM
38 | CC(=O)c1c(C)oc2ccc(NS(=O)(=O)c3ccc(C(=O)O)cc3)cc12 | inconclusive [falling, single point]
39 | COC(=O)c1sccc1N/N=C/c1cccc(Oc2ccccc2)c1 | inconclusive [falling, single point]
40 | O=C(NNc1ccccc1[N+](=O)[O-])Nc1ccc(Cl)c(Cl)c1 | active: 12 µM
41 | O=C(c1cc2c(s1)CCC2)N1CCN(c2ccccc2)CC1 | inconclusive [falling, partial curve]
42 | O=c1oc(-c2ccc(O)c(O)c2)cc2cc(O)cc(O)c12 | inconclusive [activator, single point]
43 | COC(=O)C1CSC(C(=O)OC)N1C(=O)Nc1ccc(Cl)c(Cl)c1 (stereo unspecified) | inconclusive [falling, single point]
44 | N#Cc1cccc(NC(=O)Cn2cnc(S(=O)(=O)N3CCCC3)c2)c1 | inactive
45 | Cc1cc(-c2ccc(Cl)cc2)oc(=O)c1NC(=O)c1ccccc1 | inconclusive [falling, single point]
46 | COc1ccc(OC)c(NC(=O)COc2ccc(S(=O)(=O)NC(C)C)cc2)c1 | inconclusive [falling, single point]
47 | CCOc1ccccc1NC(=O)c1oc2ccccc2c1NC(=O)C1CCCO1 (stereo unspecified) | inactive
48 | Cc1nnc(SCC2=C(C(=O)O)N3C(=O)C(NC(=O)Cc4ccccc4)C3SC2)s1 (stereo unspecified) | inconclusive [falling, single point]

Row | Compound | Potency
49 | CC(C)(C)OC(=O)N1CCN(c2ccc(NC(=O)c3ccco3)cc2)CC1 | inactive
50 | CC(=O)Oc1c2occc2cc2ccc(=O)oc12 | inconclusive [activator, partial curve]
51 | Cc1ccc(C(O)(C(=O)NNc2ccc3ccccc3n2)c2ccc(C)cc2)cc1 | inconclusive [activator, single point]
52 | C=CCn1c(C23CC4CC(CC(C4)C2)C3)n[nH]c1=S | inactive
53 | CC(C)N(CCC(=O)c1ccc2ccccc2c1)Cc1ccccc1 | inconclusive [falling, partial curve]
54 | CCC(=O)NC(=S)NNC(=O)c1ccc([N+](=O)[O-])cc1 | inconclusive [falling, single point]
55 | CC(C)c1nc2c(s1)CCc1onc(-c3ccc(Cl)cc3)c1-2 | inactive
56 | Cc1csc(SCC(=O)Nc2ccc(S(=O)(=O)N3CCCC3)cc2)n1 | inactive
57 | C/C(=N\N(c1ccccc1)c1ccccc1)c1ccco1 | inactive
58 | Cc1cc(=O)oc2c(CN3CCC(C)CC3)c(O)c(Cl)cc12 | inconclusive [falling, single point]
59 | C=CCn1c(SCC(C)=O)nc2scc(-c3ccco3)c2c1=O | inconclusive [falling, partial curve]
60 | CCOC(=O)c1c(C)[nH]c(C(=O)OCC(=O)N2CCN(S(=O)(=O)c3ccc(C)cc3C)CC2)c1C | inactive
61 | CCOC(=O)C1CCN(c2cc(C)nc3cc(-c4cccc(F)c4)nn23)CC1 | inconclusive [falling, partial curve]
62 | O=C(O)c1cc(N/N=C/C=C/c2ccccc2[N+](=O)[O-])ccc1Cl | inconclusive [activator, single point]
63 | C/C(CC(=O)NCc1ccco1)=N\NC(=O)Cc1ccc(Cl)cc1 | inconclusive [falling, partial curve]
64 | O=c1cc(CSc2nnc(COc3ccccc3Cl)o2)nc2sccn12 | inconclusive [falling, single point]
65 | O=C(COc1ccc(Br)cc1)N1CCc2ccccc21 | inactive
66 | COc1ccc(Cc2nnc(NC(=O)Cc3cccs3)s2)cc1 | inconclusive [falling, full curve]
67 | Cc1c(C)c2cc(Cl)c(OCc3nn[nH]n3)cc2oc1=O | inactive
68 | COc1ccc(S(=O)(=O)N2CCN(C(=O)C3COc4ccccc4O3)CC2)cc1 (stereo unspecified) | active: 26.9 µM
69 | CCn1c(SCC(=O)N/N=C/C=C/c2ccco2)nnc1-c1ccccc1 | inconclusive [falling, single point]
70 | O=C(NCc1ccc(Cl)cc1)c1ccc(Br)o1 | inconclusive [falling, single point]
71 | COc1cccc(C(c2c(C)[nH]n(-c3ccccc3)c2=O)c2c(C)[nH]n(-c3ccccc3)c2=O)c1OC | inconclusive [activator, single point]
